PubChem BioAssay AID485367 (National Center for Advancing Translational Sciences (NCATS), 2010)
Among all 330,000 compounds or so, about 560 (0.17%) were called active. The shares of active, inactive and inconclusive entries below differ from those in the screen. Calls follow the shape of the dose curve; as a rule, active = well fitted inhibition curve with a large enough effect; inconclusive = small, poorly fitted or top-dose-only effect, or effect the other way; inactive = flat fitted curve, though single readings scatter. No potency is given beside an inconclusive call; the fits are too rough.

What follows are compounds tested against ATP-dependent 6-phosphofructokinase (Trypanosoma brucei brucei) (UniProt O15648) (assay: qHTS Assay to Find Inhibitors of T. brucei phosphofructokinase). Conditions: T. brucei PFK, ADP-Glo luminescence; series mostly up to 57.5 µM.
Outline: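 Luminescent ADP detection (ADP-Glo, two-step: ATP depletion then ADP-to-ATP conversion for luciferase) reported PFK activity after 45 min room-temperature reaction of 1.25 nM enzyme with 0.5 mM F6P and 0.1 mM ATP at pH 8.0.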
Also: nearly all actives have a fitted effect of over 60% in size.
Potency is read from the fitted curve at half-maximal effect; tags tell the direction and shape of the fitted curve.

Sequence of UniProt O15648 (O15648 whole entry, looked up): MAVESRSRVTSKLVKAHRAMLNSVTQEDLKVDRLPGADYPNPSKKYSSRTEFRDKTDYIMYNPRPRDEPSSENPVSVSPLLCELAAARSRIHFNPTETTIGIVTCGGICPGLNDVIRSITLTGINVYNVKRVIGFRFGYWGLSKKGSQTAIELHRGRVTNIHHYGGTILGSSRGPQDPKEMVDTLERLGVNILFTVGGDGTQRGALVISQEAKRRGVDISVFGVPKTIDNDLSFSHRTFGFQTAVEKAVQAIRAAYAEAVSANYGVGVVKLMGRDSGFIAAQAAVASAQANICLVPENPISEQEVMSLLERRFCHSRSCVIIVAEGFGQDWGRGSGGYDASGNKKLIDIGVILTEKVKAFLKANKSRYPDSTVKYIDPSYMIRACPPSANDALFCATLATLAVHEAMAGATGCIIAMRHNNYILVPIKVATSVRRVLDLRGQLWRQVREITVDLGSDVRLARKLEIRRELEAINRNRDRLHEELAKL

Row | SMILES | Potency
1 | Nc1ccccc1Sc1nc2ccccc2[nH]1 | inconclusive [falling, partial curve]
2 | Cc1c(Nc2cc(Cl)c3nonc3c2[N+](=O)[O-])c(=O)n(-c2ccccc2)n1C | inconclusive [falling, partial curve]
3 | CCc1noc(C)c1C(=O)N(CC)c1nc2c(C)cccc2s1 | inconclusive [falling, single point]
4 | O=C(COc1ccc(Br)cc1F)NC1CC1 | inconclusive [falling, single point]
5 | CCN(CC)CCOC(=O)c1ccc(N/C=C(/C#N)c2nc(-c3ccc4c(c3)OCO4)cs2)cc1 | inconclusive [activator, full curve]
6 | CSc1ccc(CCNC(=O)C2CCN(c3nnc(-n4cccc4)s3)CC2)cc1 | inconclusive [falling, single point]
7 | Cc1nccn1CCOc1ccccc1Cl | inconclusive [falling, single point]
8 | COc1ccc(O)c(/C=N/NS(=O)(=O)c2ccc(C)cc2)c1 | inconclusive [falling, single point]
9 | O=C(O)C/C(=C\c1cccc(NC(=O)c2ccccc2Cl)c1)c1nc2ccccc2s1 | inconclusive [activator, partial curve, poor fit]
10 | CN(C)S(=O)(=O)c1cccc(-c2nn(-c3ccccc3)cc2/C=C(\C#N)c2nc3ccccc3[nH]2)c1 | inactive
11 | O=C(COC(=O)c1ccc(F)c(S(=O)(=O)N2CCOCC2)c1)Nc1ccc2[nH]c(=O)[nH]c2c1 | inconclusive [falling, partial curve]
12 | Cc1ccc(NC2c3ncccc3C(=O)N2Cc2cccs2)cc1C (stereo unspecified) | inconclusive [falling, partial curve]
13 | CCOc1ccccc1OCC(=O)NCc1ccco1 | inconclusive [falling, single point]
14 | COc1ccc(OCCC(=O)OCC(=O)NCc2ccco2)cc1 | inconclusive [falling, single point]
15 | Fc1ccccc1CNc1ccc(Cl)c(Cl)c1 | inconclusive [falling, single point]
16 | Cc1nc2c(cc1N)nc(C)n2Cc1ccccc1 | inactive
17 | COc1cc2c(-c3ccc(O)cc3)nc3c(c(C)nn3-c3ccccc3)c2cc1OC | inconclusive [falling, single point]
18 | COc1cccc(C(=O)O/N=C(\N)c2ccccn2)c1 | inconclusive [falling, partial curve]
19 | O=C(NCc1cccnc1)/C(=C\c1ccc(-c2ccc(Cl)c(Cl)c2)o1)S(=O)(=O)c1ccccc1 | inactive
20 | O=C(CCN1C(=O)/C(=C/c2ccco2)SC1=S)Nc1ccc(O)cc1C(=O)O | inconclusive [activator, single point]
21 | COc1ccc(O)c(/C=N/NC(=O)c2ccc(N3CCCC3=O)cc2)c1 | inconclusive [falling, single point]
22 | Cc1ccccc1NS(=O)(=O)c1cccc(C(=O)Nc2cccc(C(=O)O)c2)c1 | inactive
23 | COc1ccc(-c2cc3ncnc(Cl)c3s2)cc1 | inconclusive [falling, single point]

Row | SMILES | Potency
24 | CC1CCN(CCCNC(=O)c2cc3c(Cl)nc4ccccc4c3s2)CC1 | inactive
25 | COc1ccc(O)c(-c2c(-c3ccc(Cl)cc3)n[nH]c2C)c1 | inactive
26 | CN1C(C(=O)NCC2CC2)CC2Cn3c(nc4cc5ccccc5cc43)C21 (stereo unspecified) | inconclusive [falling, partial curve]
27 | O=c1c2ccccc2c(-c2n[nH]c(=S)o2)nn1Cc1ccccc1 | inactive
28 | Cc1ccc(N2C(=O)N(CC(=O)Nc3ccc([N+](=O)[O-])cc3)C(=O)C2C)cc1 (stereo unspecified) | inconclusive [falling, single point]
29 | C=CCNC(=O)c1ccc(C2SCC(=O)N2Cc2ccco2)cc1 (stereo unspecified) | inconclusive [falling, single point]
30 | O=C(CSc1ncnc2c1oc1ccccc12)NCc1ccco1 | inconclusive [falling, single point]
31 | COc1ccccc1N1C(=O)C(Cl)=C(Nc2ccccc2O)C1=O | inactive
32 | O=C(Cc1ccccc1)Nc1ccc(NC(=O)C2CCCCC2)nc1 | inactive
33 | Cc1nn(-c2ccccc2)c(C)c1NC(=O)COc1ccc([N+](=O)[O-])cc1 | inconclusive [falling, single point]
34 | Cc1ccc(-n2c(Cl)c(Cl)nc(Cl)c2=O)cc1 | inconclusive [falling, partial curve]
35 | Cc1ccc(S(=O)(=O)Cc2ccc(C(=O)N3CCN(Cc4ccccc4)CC3)o2)cc1 | inconclusive [falling, single point]
36 | CN(c1cccc(NC(=O)COc2ccccc2)c1)S(C)(=O)=O | inconclusive [falling, single point]
37 | C=C1/C=C(\C)C(C)(O)CC(O)CC(=O)C(O)C(O)C(C)CC(C)OC(=O)/C(C)=C/CC/C=C/C(OC)C(O)CC(C)C1 (stereo unspecified) | inactive
38 | CCOC(=O)/C(C#N)=N/Nc1c(C)n(C)n(-c2ccccc2)c1=O | inconclusive [falling, single point]
39 | CC(C)(CN1CCCC1)NS(=O)(=O)c1ccc(Cl)cc1 | inactive
40 | Cc1ccc(C(=O)CSc2ncn[nH]2)cc1 | inconclusive [falling, single point]
41 | CC[C@@]1(C(=O)OC)N[C@H](CN(C)C(=O)c2ccc(C)cc2)[C@@H]2C(=O)N(Cc3ccccc3)C(=O)[C@@H]21 | inactive
42 | CCNC(=S)N/N=C/c1ccco1 | inconclusive [falling, single point]
43 | CCCCn1c(N)c(Sc2ccccc2[N+](=O)[O-])c(=O)[nH]c1=O | inactive
44 | O=C(CCl)NCc1cc(-c2ccc(Cl)cc2)no1 | inactive
45 | COc1ccc(-c2cc(=O)oc3cc(OC(=O)C4CCCCC4)c(Cl)cc23)cc1 | inactive
46 | O=C(O)c1sccc1NC(=O)c1c(Cl)cccc1Cl | inactive
